# From paper PMC4336329 (PLoS ONE, 2015)
# Hit rate of the full screen: of about 310,000 compounds, about 2,200 (0.71%) showed an effect of 50% or more. The effect is printed as a negative number. Some of the results follow.
# Target: human ether-à-go-go-related gene (hERG) potassium channel (human, UniProt Q12809)
# Test: primary screen, population patch clamp on CHO cells stably expressing hERG
# human ether-à-go-go-related gene (hERG) potassium channel, sequence (Q12809 whole entry, looked up): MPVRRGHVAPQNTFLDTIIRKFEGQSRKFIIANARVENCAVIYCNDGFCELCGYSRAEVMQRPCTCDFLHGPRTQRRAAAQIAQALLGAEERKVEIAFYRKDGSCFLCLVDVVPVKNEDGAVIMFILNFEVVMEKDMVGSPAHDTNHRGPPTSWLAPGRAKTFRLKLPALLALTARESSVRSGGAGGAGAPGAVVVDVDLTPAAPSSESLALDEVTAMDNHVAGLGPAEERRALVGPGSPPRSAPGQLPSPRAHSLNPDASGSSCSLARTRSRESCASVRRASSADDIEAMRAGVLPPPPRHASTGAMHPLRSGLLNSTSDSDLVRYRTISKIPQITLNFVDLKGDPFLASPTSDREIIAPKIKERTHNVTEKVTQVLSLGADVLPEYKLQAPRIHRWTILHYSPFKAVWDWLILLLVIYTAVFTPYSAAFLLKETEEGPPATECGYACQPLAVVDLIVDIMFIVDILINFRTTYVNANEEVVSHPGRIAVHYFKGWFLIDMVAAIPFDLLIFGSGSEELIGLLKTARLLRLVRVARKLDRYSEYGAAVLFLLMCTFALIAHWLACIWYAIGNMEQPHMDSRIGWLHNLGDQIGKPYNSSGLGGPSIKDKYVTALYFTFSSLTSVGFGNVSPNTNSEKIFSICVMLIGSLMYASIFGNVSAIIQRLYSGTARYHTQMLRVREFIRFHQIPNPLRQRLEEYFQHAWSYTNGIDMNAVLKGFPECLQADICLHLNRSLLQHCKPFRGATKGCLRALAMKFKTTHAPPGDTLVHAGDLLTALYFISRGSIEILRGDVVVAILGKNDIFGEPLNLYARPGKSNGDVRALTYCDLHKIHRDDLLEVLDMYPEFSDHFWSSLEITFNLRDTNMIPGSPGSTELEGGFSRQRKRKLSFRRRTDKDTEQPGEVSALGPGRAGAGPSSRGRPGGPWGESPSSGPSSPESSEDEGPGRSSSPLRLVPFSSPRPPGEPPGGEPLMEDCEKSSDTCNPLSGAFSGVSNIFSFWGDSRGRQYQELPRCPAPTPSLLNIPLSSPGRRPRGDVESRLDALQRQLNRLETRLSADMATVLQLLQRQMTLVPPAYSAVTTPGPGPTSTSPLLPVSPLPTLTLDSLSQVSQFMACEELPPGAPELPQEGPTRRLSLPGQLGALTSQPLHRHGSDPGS
row,Compound,"hERG current change (%, negative = inhibition) at 1uM"
1,CCC(C)NS(=O)(=O)c1ccc(S(=O)(=O)N(CC(=O)Nc2ccccc2)Cc2ccco2)cc1 (stereo not shown),9.63%
2,CN1C(=O)c2ccccc2NC(=O)C1Cc1ccccc1 (stereo not shown),35.9%
3,CCOc1c(Cl)cc(CNCc2ccncc2)cc1OC.Cl,6.19%
4,CC1Cc2ccccc2N1C(=O)COC(=O)c1n[nH]c(=O)c2ccccc12 (stereo not shown),3.48%
5,CC(C)C(=O)Nc1cccc(NC(=O)c2cc3ccccc3o2)c1,-2.08%
6,COc1ccc(Cl)cc1NC(=O)c1cnc2sccn2c1=O,14.5%
7,O=C(NC(=S)N1CCN(C/C=C/c2ccccc2)CC1)c1cccnc1,8.16%
8,COc1ccc(CNC(=O)/C=C/c2ccc(OCCCF)cc2)cc1,2.56%
9,O=S1(=O)CCOC[C@H](CC2CCCCC2)N1Cc1ccccc1F,9.08%
10,COc1cc2c(cc1OC)CN(C(=O)c1sc(-c3cnccn3)nc1C)CC2,12.1%
11,CCCCCn1c(=O)c(C(=O)Nc2nc(CC(=O)OCC)cs2)c(O)c2ccccc21,10.7%
12,COc1nc(-c2ccccc2)nc(-c2ccccc2)c1C,10.3%
13,Cc1cccc(NC(=O)CCC(=O)Nc2nnc(C(F)(F)F)s2)c1,10.2%
14,COC(=O)CCN1CCN(S(=O)(=O)c2cccc(Br)c2)CC1,6.75%
15,CCN(CC)CCNC(=O)c1cn(C)c2ccc(S(=O)(=O)N(C)C3CCCCC3)cc2c1=O,-6.39%
16,O=C(COc1ccccc1)N1CCN(S(=O)(=O)c2ccc(Cl)cc2)CC1,-2.21%
17,CCCCCOP(=O)(OCCCCC)C1(NS(=O)(=O)c2ccccc2)C=CC(=O)c2ccccc21 (stereo not shown),14.2%
18,CCN1CCCC1CNCC(O)COc1ccc(C(C)(C)C)cc1C.O=C(O)C(=O)O (stereo not shown),-17.5%
19,Cc1cc(Oc2ccc(Cl)cc2)nc(SCC(=O)c2ccccc2)n1,10.1%
20,CC1=NN(C(=O)Cc2ccccc2)C(O)(c2ccccc2)C1 (stereo not shown),14.6%
21,COc1ccc(C(=O)C[n+]2cn(C(F)F)c3ccccc32)c(F)c1.[Br-],-0.738%
22,Cc1ccc(S(=O)(=O)NCCCCCC(=O)Nc2ccccn2)cc1,-3.7%

row,Compound,"hERG current change (%, negative = inhibition) at 1uM"
1,COc1ccc(CNC(=O)C(=O)NCc2cccnc2)cc1,1.65%
2,O=C(NCc1cccc(F)c1)C1CCC(=O)N(CC2CCCCC2)C1 (stereo not shown),9.16%
3,Cc1ccc(/C=N/NC(=O)c2sccc2OCc2ccc(F)cc2)cc1,17.7%
4,COc1cccc(-n2nnc3c(=O)n(Cc4ccccc4Cl)cnc32)c1,5.51%
5,CC(C)(C)c1ccc(C(=O)O/N=C(\N)c2ccccn2)cc1,13.9%
6,O=C(NCc1cccc(Cl)c1)c1ccco1,-8.55%
7,O=C(Nc1nc(-c2ccccc2)cs1)C1c2ccccc2Oc2ccccc21,4.9%
8,Cc1ccc(-n2c(N)cc(=O)nc2SCC(=O)NC2CCCCC2)cc1C,8.34%
9,Cc1sc(-c2ccccn2)nc1OC(=O)c1ccc(F)cc1F,16.2%
10,Cc1cc(C2=NNC(=Nc3ccc(S(=O)(=O)N4CCOCC4)cc3)SC2)c(C)n1C,1.56%
11,CCCc1cc(C(=O)OC)c(NC(=O)OCC)s1,-0.13%
12,C=CCNc1nc(C(=O)OCC(=O)N(Cc2ccccc2)C(C)C)cs1,6.35%
13,COC/C=C/C1=CC2=CC(=O)C(C)(OC(=O)c3cnc4ccccc4n3)C(=O)C2=CN1CC1CC1 (stereo not shown),8.99%
14,O=C1CCC(=O)N(c2ccccc2)N1,13.9%
15,NS(=O)(=O)c1ccc(CNC(=O)c2ccc(Cl)c(S(=O)(=O)NCc3ccccc3)c2)cc1,13.8%
16,COc1ccc(/C=C(/NC(=O)/C=C/c2ccccc2)C(=O)N2CCOCC2)cc1,-34.9%
17,COc1ccccc1C(=O)Nc1ccnn1C1CCN(C(=O)C2CCOC2)CC1 (stereo not shown),4.19%
18,Nc1nnc(SCc2c(F)cccc2Cl)s1,10.9%
19,Cc1ccccc1CN(c1ccc(C(=O)NCc2cccnc2)cc1)S(C)(=O)=O,14.1%
20,O=C(NC(=O)N1CCCC1)c1csnn1,16.2%
21,COc1ccc(CNC(=S)N/N=C/c2ccc(OC)c(OC)c2)cc1,2.4%
22,O=S(=O)(Nc1cccc2ccccc12)c1cccc2nonc12,12%

row,Compound,"hERG current change (%, negative = inhibition) at 1uM"
1,Cc1ccc2nc3c(cc2c1)CN(Cc1ccco1)C(=NCC1CCCO1)S3 (stereo not shown),5.19%
2,C/C=C(/C)C(=O)Nc1cccc(C2=NOC3(C2)C[C@H](C(N)=O)N(C(=O)Cc2ccc([N+](=O)[O-])cc2)C3)c1 (stereo partly shown),4.52%
3,Nc1nnc(SCC(=O)OCc2ccc(Cl)c(Cl)c2)s1,13.8%
4,Fc1cccc(/C=N/Nc2nncc3ccccc23)c1,7.89%
5,COCC(C)NC(=O)C(C)N1c2cccc3cccc(c23)S1(=O)=O (stereo not shown),14.7%
6,CC(=O)Nc1cccc(NC(=O)C(C)N2c3cccc4cccc(c34)S2(=O)=O)c1 (stereo not shown),8.91%
7,Cc1ccc(NC(=S)N(CCN(C)C)C(C)c2ccco2)cc1C (stereo not shown),-0.396%
8,COc1ccc(CCNC(=O)CCNS(=O)(=O)c2cccc3nsnc23)cc1OC,11.2%
9,COc1cc(C2N(c3ccccc3)CCN2c2ccccc2)ccc1OC(C)=O,9.04%
10,CCC(C)NC(=O)C1CCCN1S(=O)(=O)c1ccc(Cl)cc1 (stereo not shown),12.8%
11,Clc1ccc(Cn2nnc(-c3ccc(N4CCOCC4)cc3)n2)cc1,12.9%
12,COc1ccc(C[C@H]2NC[C@H](O)[C@H]2OC(C)=O)cc1,9.27%
13,C=CCN(c1ccc(OC)cc1)S(=O)(=O)c1ccc(Cl)c(C(=O)OCC(=O)NC2CC2)c1,8.54%
14,O=C(CSc1cn(CCNC(=O)c2cccs2)c2ccccc12)NC1CCCC1,-9.09%
15,Cc1ccc(C)c(S(=O)(=O)NCCC(=O)N2CCCC(C(N)=O)C2)c1 (stereo not shown),1.64%
16,O=C1C(C=NCCN2CCOCC2)=C(O)c2ccccc21,-0.268%
17,CC(C)Oc1ccc(C(=O)OC(C)C(=O)Nc2nc(-c3cccc([N+](=O)[O-])c3)cs2)cc1 (stereo not shown),7.68%
18,CCCCCCn1c(NCC)nc2c1c(=O)n(C)c(=O)n2C,7.77%
19,NNc1nc(Nc2ccccc2)nc(Nc2ccccc2)n1,12.6%
20,CCCC(=O)NCCc1cc2c(C)ccc(C)c2[nH]c1=O,10.2%
21,CCCc1ccc(C(=O)N2CCN(c3ccccc3OCC)CC2)cc1,-15.3%
22,N/C(=N\OC(=O)C1CC1)c1ccc([N+](=O)[O-])s1,12%

row,Compound,"hERG current change (%, negative = inhibition) at 1uM"
1,O=C(COc1cc2oc(=O)c3c(c2cc1Cl)CCC3)NCCCn1ccnc1,6.75%
2,Cc1ccccc1-n1nnnc1SCc1ncc(-c2ccccc2)o1,10.5%
3,CCCC(C)NC(=O)COC(=O)c1cc(Br)c(Br)s1 (stereo not shown),3.39%
4,Cc1nc2sccn2c(=O)c1S(=O)(=O)NCC1CCN(Cc2ccccc2Cl)CC1,15%
5,CC(C)C(NC(=O)c1ccc(C(C)(C)C)cc1)C(=O)OCC(=O)NC(=O)Cc1ccccc1 (stereo not shown),5.68%
6,Cc1cc(NN)nc(NS(=O)(=O)c2ccc(Cl)cc2)n1,7.56%
7,Cc1cccc2cc(/C=N/NC(=O)CN3CCOCC3)c(Cl)nc12,4.4%
8,COc1ccc(S(=O)(=O)N2CCCOC2CNC(=O)C(=O)NCc2ccncc2)cc1 (stereo not shown),7.04%
9,O=C(NC(Cc1ccccc1)C(=O)OCC(=O)N1CCc2ccccc21)c1ccco1 (stereo not shown),8.6%
10,O=C(O)c1cccc(N/N=C/c2sc(N3CCOCC3)nc2-c2ccccc2)c1,4.07%
11,CCS(=O)(=O)n1nc(-c2ccco2)nc1N,18.2%
12,Fc1cccc(C2NCCc3[nH]cnc32)c1 (stereo not shown),10.6%
13,O=[N+]([O-])c1cccc(/C=N/n2c(COc3ccccc3)n[nH]c2=S)c1,-7.78%
14,Cc1ccc(NC(=O)c2ccc(OCC3CCCO3)cc2)nc1 (stereo not shown),7.05%
15,CC(=O)c1ccc(N2CCN(S(=O)(=O)c3ccc(-c4cc(C)no4)s3)CC2)cc1,-4.62%
16,O=C(CCC1CCCN(Cc2ccc3c(c2)CCO3)C1)NCc1ccc(F)c(F)c1 (stereo not shown),-27.8%
17,CC(=O)N1CCc2cc(S(=O)(=O)CCC(=O)Nc3cc(C)cc(C)c3)ccc21,8.33%
18,Cc1cc(C)cc(N(CCC(=O)Nc2nnc(C)s2)S(=O)(=O)c2ccc(Cl)cc2)c1,11.3%
19,CCN(CC)c1ccc(N2C(=NC(=O)C3CCCO3)SC3CS(=O)(=O)CC32)cc1 (stereo not shown),12.8%
20,Oc1ccc(Br)cc1/C=N/n1cnc2ccccc21,12.6%
21,CCOc1ccccc1NC(=O)c1cc(S(=O)(=O)N2CCN(CC)CC2)ccc1Cl,3.07%
22,Cc1ccc2c(c1)C(O)(CC(=O)c1cccc(-n3cccc3)c1)C(=O)N2 (stereo not shown),6.4%
